The whole screen tested about 150,000 compounds, of which about 540 (0.36%) showed an effect of 50% or more. This is one part of the list.
Each molecule was assayed on Plasmodium falciparum (assay: Primary screen in NF54 nanoGlo assay, in single point, at 2uM, 72h; a lower Z score goes with more inhibition). Settings: timepoint 72 hour.
Assay type: functional, Erythrocyte

Structure (SMILES)	% Inhibition	Z score
C[C@H]1CN(C(=O)Cn2cc(C(F)(F)F)ccc2=O)CCO1	-8%	1.45
N#Cc1ccc(S(=O)(=O)N(CC(F)(F)F)c2ccncc2)cn1	30%	-3.34
CCn1cc(S(=O)(=O)NCC2CCCCC2)cn1	-7%	0.98
O=C(O)c1ccc(CC(=O)N(C2CC2)[C@H]2CCc3ccccc32)cc1	-15%	1.53
CC(C)C[C@H](NC(=O)C(C)(C)C)C(=O)N(C)CCc1nccs1	-2%	0.25
O=C(O)[C@H]1CN(C(=O)C2CCCC2)C[C@@H]1c1ccc2c(c1)OCO2	-12%	2.34
CCCc1nnc(NCCc2c[nH]c3ccccc23)o1	2%	-0.29
O=C(Nc1cnccc1-n1ccnc1)c1cc(F)ccc1F	-8%	1.02
Cc1cnc(CC2CCN(C(=O)NC(C)C)CC2)n1Cc1ccc(F)cc1	-3%	0.39
CCc1ccc(S(=O)(=O)NC(c2cncc(OC)c2)[C@H]2C[C@H](O)C2)s1 (stereo partly drawn)	-16%	1.96
CCOCCC1(Cn2nnnc2N2CC(CC)OC(CC)C2)CC1 (stereo not drawn)	-1%	0.11
Cc1cnc(C)c(-c2cccc(C(=O)NCCN3CCCOC3=O)c2)n1	-19%	2.05
O=C(c1ccsc1)N1CCN(c2cc(-n3cncn3)ncn2)CC1	-13%	2.09
O=C(C1CCN(c2ncnc3c2Cc2ccccc2OC3)CC1)N1CCCC1	-2%	0.38
Cc1nc2c(s1)CCC[C@@H]2NC(=O)CN1CC(=O)NC1=O	-13%	2.17
COC[C@H]1CCN(Cc2ccc3c(c2)OCCO3)C1	6%	-0.79
COc1cc2ccc3c(CCN(C)C(=O)c4cc(OC)c5c(c4)OCCCO5)cc(OC)c(OC)c3c2cc1OC	7%	-0.9
Cc1cc(S(=O)(=O)N(C)CC#N)c(C)s1	-8%	1.2
Cc1ccccc1C(=O)N/C(=N/c1ccc(F)cc1)NCc1ccncc1	-10%	1.81
Cc1ccc(N(C)C(=O)C2=NN(C)C(=O)CC2)cc1	-10%	1.26
CCOc1cc(Br)ccc1S(=O)(=O)N(CC)CC	-6%	0.83
CC(C)CCCNC(=O)Nc1cc2n(n1)CCN(C)C2=O	-10%	1.99
CCOCC(=O)N1CCC[C@H](Oc2ccncc2)C1	6%	-0.86
CNC(=O)[C@H](Nc1nc(C)nc2ncccc12)c1ccccc1	-1%	0.08
CN(Cc1nccn1C)C(=O)c1cc2ccccc2[nH]1	41%	-5.32
CCc1c(C)sc2c1CCN(CC(=O)Nc1cc(C(F)(F)F)ccc1Cl)[C@@H]2c1ccccc1	-11%	1.12
O=S(=O)(c1ccc(F)c(Cl)c1)N1CCC[C@H](Cc2nc(C3CC3)no2)C1	19%	-2.47

Structure (SMILES)	% Inhibition	Z score
COCC(=O)Nc1cc(C(=O)O)cc2nc(-c3cccnc3)n(C)c12	-2%	0.19
CCc1cnccc1-c1noc(C[C@H]2CCCCNC2=O)n1	6%	-1.18
Cc1ccn(CC(=O)Nc2ccnn2C2CCCC2)c(=O)c1	-18%	1.86
CN([C@](C)(C#N)Cn1cc(Br)cn1)S(=O)(=O)c1ccc2c(c1)CCCC2	1%	-0.1
Cn1cnnc1[C@@H]1CCCN1C(=O)Nc1ccc(F)c(C2CC2)c1	-10%	1.31
NC(=O)COc1ccc(S(=O)(=O)N2CCC(=C3CC3)CC2)cc1	-13%	1.53
Cc1noc2ncnc(N[C@@H](C)CN3CCN(c4ccccc4)CC3)c12	1%	-0.14
COc1cccc(CN2CCC[C@@]3(CCN(C(=O)Cc4ccccc4)C3)C2)c1OC	-10%	1.86
Cc1nc(C(C)NC(c2cccc(C(F)(F)F)c2)C2CC2)no1 (stereo not drawn)	-13%	1.48
Cc1n[nH]c(C)c1CC(C)C(=O)N1CCN(C(C#N)C(C)C)CC1 (stereo not drawn)	-9%	0.75
Cc1nc2cc(NC(=O)CCc3c[nH]c4ccccc34)ccc2[nH]1	2%	-0.31
O=C(Nc1nc(-c2ccc3c(c2)OCO3)cs1)c1ccc2c(c1)OCCO2	3%	-0.53
O=C(NCc1ccc(-c2nccs2)cc1)c1ccc2c(c1)OCO2	-13%	2.06
CN1C[C@H]2CC[C@@H](C1)N(Cc1ccccc1OCCN1CCCCC1)C2	-2%	0.49
O=C(N[C@H]1CCCn2ncnc21)c1c(O)cc(Cl)cc1Cl	7%	-0.69
CCN1C[C@@H](CNc2ccnc3c(C)c(C)ccc23)CC1=O	-11%	1.57
COc1cccc(CNC(=O)N2C[C@H]3CCC[C@@H](OC)[C@H]3C2)c1	3%	-0.3
COc1ccc(F)c(NC(=O)C(=O)N(C)[C@@H](C)C2(C)CC2)c1	-13%	1.09
COc1cc(C[C@@]2(CCC(=O)NCC(C)(C)N3CCOCC3)CCC(=O)N2)ccc1F	-1%	0.15
CC(C)[C@H](OC(=O)c1cnn(C(C)C)c1)c1nccn1C	-10%	1.45
COc1cccc([C@H]2CCN(Cc3cccn3-c3cccnc3)C[C@@H]2O)c1	-5%	0.56
c1ccc(-c2noc(-c3nccn3CCc3ccco3)n2)cc1	-12%	1.16
COCCOc1cc(Cn2cnc3cc(F)c(F)cc32)ccn1	-6%	0.54
COCCCN(Cc1ccncc1C#N)[C@H]1CCS(=O)(=O)C1	-2%	0.22
CCc1nc(C)nc(N2CCN(C(=O)c3ccco3)CC2)c1Cc1ccc(Cl)cc1	4%	-0.78
CN(C)C(=O)NCC(=O)N1CCC(c2ncon2)CC1	-9%	1.13
CCOc1ccc2nc(NC(=O)c3coc(NC(=O)c4cc(C)on4)n3)sc2c1	-1%	0.17
